Results: US9668986B2, “Ophthalmic, intra-articular or intravesical preparations containing N-acyl-ethanolamines” (EPITECH GROUP S.R.I., priority 2014, dated 2017)

Legend:
[1] = minimum amount of cyclodextrin
[2] = polymeric emulsifier present

CCCCC/C=C\C/C=C\C/C=C\CCCCC(=O)NCCO [gamma-LNEA, N-γ-linolenoylethanolamine]
minimum MβCD/NAE weight ratio to obtain the solubilization of the NAE [1]: ≥ 180:1
MβCD/NAE weight ratio giving stable solutions with polymeric emulsifier [2]: ≥ 180:1
